# From PubChem BioAssay AID504332 (National Center for Advancing Translational Sciences (NCATS), 2011)
# Values joined by “and” are separate entries in the source; they are usually repeats but may differ in a detail not shown here. Equal entries are not always repeated. The whole screen tested about 350,000 compounds, of which about 31,000 (8.9%) were called active. Inconclusive results, whose numbers are uncertain, are shown with a selection of clear calls. Calls come from the whole dose curve; as a rule, active = well fitted inhibition curve with a large enough effect; inconclusive = small, poorly fitted or top-dose-only effect; inactive = no such curve, though single readings can be large or run the other way. A potency beside an inconclusive call is a rough fit, not a confirmed value.
# Target: Histone-lysine N-methyltransferase EHMT2 (Homo sapiens) (UniProt Q96KQ7)
# Assay: qHTS Assay for Inhibitors of Histone Lysine Methyltransferase G9a; note: nearly all actives have a fitted effect of over 75% in size
# Details: G9a H3K9 monomethylation, AlphaScreen, 2 h; activity, negative = inhibition: at 59 µM (top of the series) unless noted
# How it was run: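 Using a bead-based AlphaScreen, monomethylated H3K9 product from 2 h room-temperature reactions (G9a 20 nM, peptide 500 nM, SAM 20 uM) was detected with 0.5 ug/mL rabbit anti-H3K9me1 antibody.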
# % is set by controls: 0 for no effect and ±100 for the full control effect; potency is the fitted concentration of half-maximal effect; tags give direction and shape of the fitted curve.
# Sequence of UniProt Q96KQ7 (Q96KQ7 whole entry, looked up): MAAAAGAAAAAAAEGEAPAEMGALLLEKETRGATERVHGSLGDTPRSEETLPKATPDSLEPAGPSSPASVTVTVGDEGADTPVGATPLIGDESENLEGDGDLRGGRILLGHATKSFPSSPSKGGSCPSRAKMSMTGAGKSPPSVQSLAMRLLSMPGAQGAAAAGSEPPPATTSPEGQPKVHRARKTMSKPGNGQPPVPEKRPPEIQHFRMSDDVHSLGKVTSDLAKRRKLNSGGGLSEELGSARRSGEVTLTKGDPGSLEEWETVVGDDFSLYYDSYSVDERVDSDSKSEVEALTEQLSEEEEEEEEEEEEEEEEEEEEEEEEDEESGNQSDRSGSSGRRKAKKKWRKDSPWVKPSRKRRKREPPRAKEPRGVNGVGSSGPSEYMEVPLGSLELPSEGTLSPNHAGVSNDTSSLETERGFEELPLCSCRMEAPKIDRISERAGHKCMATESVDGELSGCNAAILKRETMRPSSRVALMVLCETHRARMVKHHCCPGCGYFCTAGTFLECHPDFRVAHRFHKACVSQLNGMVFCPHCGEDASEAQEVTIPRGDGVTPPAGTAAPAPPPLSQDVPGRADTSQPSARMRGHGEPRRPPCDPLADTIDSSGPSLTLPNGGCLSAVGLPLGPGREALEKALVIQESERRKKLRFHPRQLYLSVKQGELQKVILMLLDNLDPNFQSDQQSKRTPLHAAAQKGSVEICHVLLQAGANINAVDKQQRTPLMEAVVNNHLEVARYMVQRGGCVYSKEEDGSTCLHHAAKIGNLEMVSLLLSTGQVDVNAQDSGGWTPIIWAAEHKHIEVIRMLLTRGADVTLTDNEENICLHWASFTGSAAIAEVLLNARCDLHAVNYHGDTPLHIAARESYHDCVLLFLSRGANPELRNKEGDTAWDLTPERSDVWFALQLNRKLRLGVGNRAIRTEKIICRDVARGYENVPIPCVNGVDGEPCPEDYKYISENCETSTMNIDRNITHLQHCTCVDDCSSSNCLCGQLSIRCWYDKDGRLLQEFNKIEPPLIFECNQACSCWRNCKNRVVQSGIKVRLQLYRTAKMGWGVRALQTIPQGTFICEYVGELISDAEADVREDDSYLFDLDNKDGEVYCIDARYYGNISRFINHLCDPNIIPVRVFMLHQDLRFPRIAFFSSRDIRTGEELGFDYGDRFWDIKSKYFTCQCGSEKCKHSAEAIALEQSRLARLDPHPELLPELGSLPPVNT
Compound,Potency,"activity, negative = inhibition"
CCCNC(=O)c1c(N)n(-c2ccc3c(c2)OCO3)c2nc3ccccc3nc12,"inconclusive: 70.8 µM [inhibitor, partial curve]",–
CC(C)C(NC(=S)Nc1ccccc1)C(=O)O (stereo not given),–,inactive: -1.74% [at 102 µM]
O=C(Oc1ccc([N+](=O)[O-])cc1)c1ccc(Cl)c(S(=O)(=O)N2CCCCC2)c1,"inconclusive: 28.2 µM [inhibitor, single point]",–
CS(=O)(=O)N(Cc1ccc(C(=O)NN=C2CCCC2)cc1)c1ccccc1,–,inactive: 18.7%
C=CCOc1ccccc1CNc1ccccc1C,"inconclusive: 39.8 µM [inhibitor, single point]",–
CCCN(CC(=O)Nc1ccccc1C)C(=O)COC(=O)CSc1ccc([N+](=O)[O-])cc1,"inconclusive: 56.2 µM [inhibitor, partial curve, poor fit]",–
CC(C)(C)c1ccc(NC(=O)C2CCCN(c3cnccn3)C2)cc1 (stereo not given),–,inactive: -9.93%
CCC(C)(C)NC(=O)c1ccc2c(c1)S(=O)(=O)c1ccccc1C2=O,–,inactive: -24.8%
COc1ccc(CC(=O)NCc2cccc(CNC(=O)Cc3ccc(OC)c(OC)c3)c2)cc1OC,"inconclusive: 89.1 µM [inhibitor, single point]",–
Cc1ccc(C(=O)Nn2cnc3scc(-c4cccs4)c3c2=O)c(O)c1,"inconclusive: 4.47 µM [inhibitor, full curve]",–
CC(Cc1ccccn1)NC(=O)c1ccc(OC2CCN(CCc3ccccc3)CC2)cc1 (stereo not given),"inconclusive: 25.1 µM [inhibitor, partial curve, poor fit]",–
CCOc1ccc(NC(=O)c2ccc(OCC3CCCO3)cc2)cc1S(=O)(=O)N(CC)CC (stereo not given),"inconclusive: 8.91 µM [inhibitor, single point]",–
Cc1ccccc1NC(=O)/C(=C\c1cccs1)NC(=O)c1ccccc1,–,inactive: 13.4% [at 102 µM]
COCCNC(=S)Nc1ccc2nc(N3CCN(C)CC3)cc(C)c2c1,"inconclusive: 79.4 µM [inhibitor, single point]",–
CC(C)(C(=O)O)n1cncn1,"inconclusive: 79.4 µM [inhibitor, single point]",–
CCOc1ccc(/C(O)=C2\C(=O)C(=O)N(CCN(C)C)C2c2cccc(OC)c2OC)cc1Cl (stereo not given),–,inactive: -41.7%
C=C(C)Cn1c(SCC(=O)O)nc2c1c(=O)[nH]c(=O)n2C,"inconclusive: 89.1 µM [inhibitor, partial curve, poor fit]",–
Cc1ccnc(NC(=O)c2cccc(S(=O)(=O)N3CCN(c4ccccc4)CC3)c2)c1,"inconclusive: 35.5 µM [inhibitor, partial curve]",–
O=C(NCc1ccco1)c1cnc2ccccn2c1=O,"inconclusive: 39.8 µM [inhibitor, partial curve, poor fit]",–
Nc1c(C(=O)Nc2ccc3c(c2)OCCO3)nnn1Cc1ccccc1Cl,"inconclusive: 79.4 µM [inhibitor, partial curve, poor fit]",–
Cc1cc(C)c(NC(=O)Cn2c(=O)n(CC(=O)NCc3ccccc3Cl)c(=O)c3sccc32)c(C)c1,–,inactive: 0.793%
COc1ccc(NC(=O)CSc2nc(-c3cccs3)cc(C(F)(F)F)n2)cc1OC,–,inactive: -12.2%
Cc1cc(C)c(OCC(=O)NCCCn2nc(C)cc2C)c(C)c1,–,inactive: 3.7% [at 12.7 µM]
CCN1CCN(C(=S)c2ccc(Cl)c(Cl)c2)CC1,active: 2.51 µM,–
c1cn(CCCNc2ncnc3nc[nH]c23)cn1,–,inactive: -32% [at 102 µM]

Compound,Potency,"activity, negative = inhibition"
Cc1ccc(C(C)C)c(OCC(=O)NC(=S)Nc2ccccc2N2CCOCC2)c1,"inconclusive: 70.8 µM [inhibitor, partial curve, poor fit]",–
CC1(C(=O)Nc2nnc(SCc3ccccc3)s2)Cc2ccccc2C(=O)O1 (stereo not given),"inconclusive: 39.8 µM [inhibitor, single point]",–
COc1ccc(N2C(=O)C(Cl)=C(Nc3c(C)n(C)n(-c4ccccc4)c3=O)C2=O)cc1,active: 8.91 µM,–
CCOCc1nnc(NC(=O)COc2ccc3c(c2)OCO3)s1,"inconclusive: 89.1 µM [inhibitor, single point]",–
O=C(CSc1nc2ccccc2n1CCc1ccccc1)N1CCOCC1,active: 50.1 µM,–
C=CCn1c(Cc2cccs2)nnc1SCC(=O)c1cccc(Br)c1,active: 31.6 µM,–
Cc1ccc(S(=O)(=O)N(CC(O)Cn2c3ccccc3c3ccccc32)c2cccc(C(N)=O)c2)cc1 (stereo not given),–,inactive: -47.4%
Cc1ccc(C)c(NC(=O)CN2C(=O)CCc3ccccc32)c1,"inconclusive: 28.2 µM [inhibitor, partial curve, poor fit]",–
CCCC(=O)N1CCN(c2ccc(NC(=O)c3cccs3)cc2)CC1,–,inactive: 27.2%
Cc1ccccc1S(=O)(=O)c1c(C)cc(C)n(CC(C)C)c1=O,"inconclusive: 8.91 µM [inhibitor, single point]",–
CS(=O)(=O)c1ccc(Sc2nc3ccccc3[nH]2)c([N+](=O)[O-])c1,"inconclusive: 70.8 µM [inhibitor, single point]",–
O=C(Cc1n[nH]c(=O)c2ccccc12)Nc1cc(C(F)(F)F)ccc1-n1cncn1,active: 35.5 µM,–
C=Cn1cc[n+](CC(=O)c2ccc(Br)cc2)c1,–,inactive: 12% [at 102 µM]
O=[N+]([O-])c1ccc(Cl)c2c1C1C=CCC1C(c1ccccn1)N2 (stereo not given),active: 20 µM,–
COCc1cc(=O)n2c([nH]c3ccccc32)c1C#N,"inconclusive: 1.26 µM [inhibitor, full curve, poor fit]",–
O=c1[nH]c(S)nc2sc3c(c12)CCCC3,active: 1 µM,–
CCS(=O)(=O)c1ccc2c(c1)N(S(=O)(=O)c1cccs1)CC(C(=O)O)O2 (stereo not given),–,inactive: 16.3% [at 102 µM]
CSc1nsc(SC)c1C(=O)Nc1ccc(C)cc1,active: 25.1 µM,–
COc1ccc(OCCNC(=O)/C=C/c2ccc([N+](=O)[O-])cc2)cc1,"inconclusive: 89.1 µM [inhibitor, single point]",–
CC(=O)Nc1ccc(OCC(=O)NCc2ccccc2)cc1,"inconclusive: 89.1 µM [inhibitor, single point]",–
CCCN(CCC)CCOc1cc(C)ccc1C(C)C,active: 17.8 µM,–
Cc1cccc2nc(-c3ccco3)c(Nc3ccc4c(c3)OCO4)n12,active: 14.1 µM and active: 35.5 µM,–
c1cnc(NC2C3CC4CC(C3)CC2C4)nc1 (stereo not given),"inconclusive: 0.562 µM [inhibitor, partial curve, poor fit]",–
CC(=O)c1ccc(N2C(=NC(=O)C3CCCCC3)SC3CS(=O)(=O)CC32)cc1 (stereo not given),–,inactive: 5.47% [at 102 µM]
Cc1cc(C)n(C)c(=O)c1C#N,–,inactive: -10.2% [at 102 µM]

Compound,Potency,"activity, negative = inhibition"
O=c1c2ccccc2ncn1Cc1ccccc1,–,inactive: 3.77% [at 102 µM]
COC(=O)[C@H](CC(C)C)NS(=O)(=O)c1ccccc1,"inconclusive: 89.1 µM [inhibitor, single point]",–
COCCn1nnnc1SCC(=O)N1CCCCC1,"inconclusive: 35.5 µM [inhibitor, single point]",–
Cc1cc(=O)cc(C)n1-c1ccc(F)cc1F,–,inactive: -6.05% [at 102 µM]
CCc1ccc(CN(C)CCc2ccccn2)cc1,–,inconclusive: -121% [inhibitor]
c1ccc(-c2nnc(CSc3ccc4c(c3)OCCO4)o2)cc1,–,inactive: 27.7% [at 102 µM]
Cc1ccc2oc(=O)c3cnn(CC(=O)N(CCN(C)C)Cc4ccco4)c3c2c1,"inconclusive: 79.4 µM [inhibitor, single point]",–
CSc1ccc(C(=O)/C=C/c2ccc(N)cc2)cc1,"inconclusive: 3.98 µM [inhibitor, partial curve, poor fit]",–
Cc1cc(C)cc(C(=O)N2CCN(Cc3ccc4c(c3)OCO4)CC2)c1,"inconclusive: 89.1 µM [inhibitor, single point]",–
CCO/N=C(\C)c1c(O)cc(C(C)C)n(-c2ccccc2)c1=O,"inconclusive: 8.91 µM [inhibitor, single point]",–
COc1ccc(-c2csc(Nc3ccc(C)cn3)n2)cc1,active: 20 µM,–
CS(=O)(=O)N1CC(C(=O)O)Oc2ccc(CC(=O)O)cc21 (stereo not given),"inconclusive: 50.1 µM [inhibitor, partial curve, poor fit]",–
COCCNC(=O)CSc1nnc(-c2ccccc2)c(-c2ccccc2)n1,–,inactive: -8.05% [at 102 µM]
COc1ccc(OCC(=O)OC2CCN(C)CC2)cc1,"inconclusive: 17.8 µM [inhibitor, partial curve, poor fit]",–
COC(=O)C(/C=N/OCc1ccc([N+](=O)[O-])cc1)NC(=O)c1ccccc1 (stereo not given),"inconclusive: 89.1 µM [inhibitor, partial curve, poor fit]",–
C/C(=N/NS(=O)(=O)c1ccc(C)c(C)c1)c1ccncc1,–,inactive: -10.9% [at 0.501 µM]
N#Cc1c(NC(=O)CCN2C(=O)c3ccccc3C2=O)oc(-c2ccccc2)c1-c1ccccc1,"inconclusive: 44.7 µM [inhibitor, full curve, poor fit]",–
CCn1c2ccccc2c2nnc(SCC(=O)O)nc21,active: 10 µM,–
c1ccc(N2CCN(C3CC4CCC3C4)CC2)cc1 (stereo not given),active: 79.4 µM,–
CC(C)c1nnc(NC(=O)C2CCN(C(=O)c3ccco3)CC2)s1,active: 31.6 µM,–
COc1cc(C2/C(=C(\O)c3ccc4c(c3)CC(C)O4)C(=O)C(=O)N2CCN2CCOCC2)cc(OC)c1OC (stereo not given),active: 70.8 µM,–
Cc1ccccc1C(=O)c1cccn1CC(=O)NCc1ccccc1,inactive,–
CC(=O)OCC1=C(C(=O)O)N2C(=O)[C@@H](NC(=O)CSc3ccncc3)[C@@H]2SC1,–,inactive: 2.15% [at 12.7 µM]
O=[N+]([O-])c1cc(/C=N/n2c(-c3cccnc3)n[nH]c2=S)ccc1Cl,active: 1.26 µM,–
COc1ccc(N2CCN(C(=O)c3cccc(F)c3)CC2)c([N+](=O)[O-])c1,–,inactive: -47.8% [at 102 µM]
